Measurements published in PubChem BioAssay AID504333 (National Center for Advancing Translational Sciences (NCATS), 2011).
Values joined by “and” are separate entries in the source; they are usually repeats but may differ in a detail not shown here. Equal values may be shown once. The campaign covered roughly 360,000 compounds. About 16,000 (4.4%) were called active. Inconclusive means that the source gave no clear call. Such entries were picked first, then a sample of the others. The call rests on the fitted dose curve; in most records, active means well fitted inhibition curve with a large enough effect; inconclusive means small, poorly fitted or top-dose-only effect; inactive means no such curve, though single readings can be large or run the other way. Potencies of inconclusive entries are doubtful fits and often do not repeat.

Target: Bromodomain adjacent to zinc finger domain protein 2B (Homo sapiens) (UniProt Q9UIF8)
Chain of UniProt Q9UIF8 (Q9UIF8 whole entry, looked up, the tested form may be a part): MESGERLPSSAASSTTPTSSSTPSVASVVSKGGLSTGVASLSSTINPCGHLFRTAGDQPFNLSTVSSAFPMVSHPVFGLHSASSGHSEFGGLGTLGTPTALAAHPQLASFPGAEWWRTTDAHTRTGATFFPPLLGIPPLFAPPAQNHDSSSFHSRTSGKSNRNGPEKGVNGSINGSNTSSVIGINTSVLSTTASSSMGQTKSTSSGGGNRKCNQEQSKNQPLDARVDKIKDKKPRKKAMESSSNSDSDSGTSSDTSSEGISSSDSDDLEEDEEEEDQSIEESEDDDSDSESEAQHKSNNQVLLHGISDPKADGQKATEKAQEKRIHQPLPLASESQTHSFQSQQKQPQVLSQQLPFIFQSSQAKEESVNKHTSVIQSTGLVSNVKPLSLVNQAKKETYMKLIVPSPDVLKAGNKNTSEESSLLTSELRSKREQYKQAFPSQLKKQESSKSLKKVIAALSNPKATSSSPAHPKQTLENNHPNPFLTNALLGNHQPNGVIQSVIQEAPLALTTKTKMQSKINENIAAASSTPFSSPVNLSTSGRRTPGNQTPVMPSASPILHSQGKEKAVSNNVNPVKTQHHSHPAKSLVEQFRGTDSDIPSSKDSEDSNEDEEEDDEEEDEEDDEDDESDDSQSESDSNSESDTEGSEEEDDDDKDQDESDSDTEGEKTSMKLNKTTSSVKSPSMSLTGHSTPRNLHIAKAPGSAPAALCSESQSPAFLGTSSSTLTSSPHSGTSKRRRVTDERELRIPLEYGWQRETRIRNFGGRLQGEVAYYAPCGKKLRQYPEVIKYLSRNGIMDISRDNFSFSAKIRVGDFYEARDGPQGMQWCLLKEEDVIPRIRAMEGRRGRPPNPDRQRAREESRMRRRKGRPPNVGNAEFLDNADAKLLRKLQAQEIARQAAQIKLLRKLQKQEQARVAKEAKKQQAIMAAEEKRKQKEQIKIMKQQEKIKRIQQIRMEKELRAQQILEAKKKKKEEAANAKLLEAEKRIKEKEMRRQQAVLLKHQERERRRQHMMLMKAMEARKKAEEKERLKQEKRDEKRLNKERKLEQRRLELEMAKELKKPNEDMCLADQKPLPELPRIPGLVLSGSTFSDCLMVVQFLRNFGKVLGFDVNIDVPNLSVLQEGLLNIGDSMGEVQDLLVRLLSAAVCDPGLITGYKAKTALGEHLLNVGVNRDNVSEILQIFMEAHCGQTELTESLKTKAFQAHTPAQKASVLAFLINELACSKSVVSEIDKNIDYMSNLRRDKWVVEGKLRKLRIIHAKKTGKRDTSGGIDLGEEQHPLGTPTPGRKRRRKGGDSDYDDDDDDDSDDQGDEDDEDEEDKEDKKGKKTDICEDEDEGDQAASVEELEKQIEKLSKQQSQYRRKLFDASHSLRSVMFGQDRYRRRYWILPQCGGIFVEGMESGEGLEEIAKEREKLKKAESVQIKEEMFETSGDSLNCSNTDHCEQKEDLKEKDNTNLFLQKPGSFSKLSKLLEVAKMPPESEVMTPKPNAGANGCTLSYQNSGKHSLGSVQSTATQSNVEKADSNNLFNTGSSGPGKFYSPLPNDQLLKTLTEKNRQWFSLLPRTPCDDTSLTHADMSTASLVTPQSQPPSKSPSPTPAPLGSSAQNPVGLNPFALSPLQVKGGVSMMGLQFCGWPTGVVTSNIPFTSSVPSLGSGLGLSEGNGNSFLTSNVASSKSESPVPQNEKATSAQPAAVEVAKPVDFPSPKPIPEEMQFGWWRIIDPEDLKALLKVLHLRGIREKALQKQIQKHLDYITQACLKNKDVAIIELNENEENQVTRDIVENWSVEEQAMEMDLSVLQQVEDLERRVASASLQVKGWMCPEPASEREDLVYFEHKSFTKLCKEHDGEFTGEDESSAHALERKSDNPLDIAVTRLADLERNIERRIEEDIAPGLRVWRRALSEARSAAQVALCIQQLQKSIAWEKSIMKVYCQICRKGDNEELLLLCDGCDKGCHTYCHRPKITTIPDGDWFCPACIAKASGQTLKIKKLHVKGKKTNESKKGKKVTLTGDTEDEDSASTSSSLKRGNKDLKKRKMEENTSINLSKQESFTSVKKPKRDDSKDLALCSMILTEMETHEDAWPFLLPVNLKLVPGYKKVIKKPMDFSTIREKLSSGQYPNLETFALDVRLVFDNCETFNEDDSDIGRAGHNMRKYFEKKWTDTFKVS
Test: qHTS Assay for Inhibitors of BAZ2B; further: nearly all actives have a fitted effect of over 60% in size
Details: AlphaScreen BAZ2B-H3K14Ac peptide displacement; activity change, negative = inhibition: at 114 µM (top of the series) unless noted
How it was run: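 AlphaScreen luminescence quantifies BAZ2B engagement of H3K14Ac peptide; the protein and biotinylated peptide are both at 50 nM final, buffer PBS pH 7.4 with 0.01% Tween-20, all steps at room temperature.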
On the % scale 0 is the no-effect control and ±100 the full control effect; potency means the concentration at half of the fitted maximal effect; tags describe the fitted curve by direction and shape.

| Compound | Potency | activity change, negative = inhibition |
| --- | --- | --- |
| CCCC(=O)NCc1cc(-c2nn(C)c(=O)c3ccccc23)ccc1OC | inconclusive: 89.1 µM [inhibitor, single point] | – |
| CCN(CC)CCN1C(=O)C(=O)/C(=C(/O)c2ccc3c(c2)CC(C)O3)C1c1ccc(OC)cc1 (stereo not drawn) | – | inactive: -22.5% |
| CC(NC(=O)C1CCN(S(=O)(=O)c2ccc(F)cc2)CC1)c1ccccc1 (stereo not drawn) | – | inactive: 1.25% |
| O=S(=O)(c1cc(Cl)ccc1Cl)N1CC2CCCN2c2ccc(C(F)(F)F)cc21 (stereo not drawn) | inconclusive: 89.1 µM [inhibitor, partial curve, poor fit] | – |
| COc1ccccc1OC(=O)c1ccc2nsnc2c1 | – | inactive: 9.94% |
| CC(C)(C)C1CCC(=NNc2ccc(S(N)(=O)=O)cc2[N+](=O)[O-])CC1 (stereo not drawn) | inconclusive: 35.5 µM [inhibitor, full curve, poor fit] | – |
| Cc1ccc(C)n1-c1ccc(C(=O)O)cc1 | active: 12.6 µM | – |
| Cc1cccc(NC(=O)C2CC(=O)n3ncnc3N2)c1 (stereo not drawn) | – | inactive: 3.55% |
| Cc1[nH]n(-c2ccccc2)c(=O)c1C(c1ccccc1[N+](=O)[O-])C(C#N)C#N (stereo not drawn) | inconclusive: 44.7 µM [inhibitor, partial curve] | – |
| O=C1N/C(=C\c2ccc(O)cc2)C(O)=C1C=NCc1ccccc1 | inconclusive: 89.1 µM [inhibitor, single point] | – |
| Cc1cc(OCC(O)CN2CCN(CCO)CC2)ccc1C(C)C (stereo not drawn) | inconclusive: 89.1 µM [inhibitor, single point] | – |
| O=C(NCCCNc1ccc(C(F)(F)F)cc1[N+](=O)[O-])c1cc(F)c(F)cc1Cl | inconclusive: 79.4 µM [inhibitor, single point] | – |
| CCc1ccc(C(=O)CCC(=O)Nc2cccc(S(=O)(=O)N3CCCCC3)c2)cc1 | – | inactive: 5.01% |
| COc1ccc(OC)c(CN2CCN(S(=O)(=O)c3ccccc3)CC2)c1 | inconclusive: 35.5 µM [inhibitor, partial curve] | – |
| O=C(/C=C/c1ccc(NC(=O)c2ccccc2-c2ccccc2C(=O)O)cc1)c1ccccc1 | inconclusive: 89.1 µM [inhibitor, single point] | – |
| CCCNC(=O)Cn1cnc([N+](=O)[O-])n1 | – | inactive: 6.5% |
| Cc1ccc(NC(=S)NCCc2c[nH]c3ccccc23)c(C)c1 | active: 35.5 µM | – |
| COc1ccc(NCCNc2ccc(OC)cc2)cc1 | active: 50.1 µM | – |
| Cc1ccc(SCCN2CCN(CC(C)C)CCC2=O)cc1 | – | inactive: 3.06% |
| O=S(=O)(CCSc1ccc(C(F)(F)F)cn1)c1ccccc1 | – | inactive: 0.24% |
| COC(=O)c1ccc(C2c3c(oc4ccc(C)cc4c3=O)C(=O)N2Cc2ccc3c(c2)OCO3)cc1 (stereo not drawn) | – | inactive: -5.61% |
| CN1CCN(C2CCN(Cc3ccc(O)c4ncccc34)CC2)CC1 | active: 17.8 µM and active: 8.91 µM | – |
| CCOC(=O)c1cncc(C#CCO)c1 | – | inactive: -10.4% |
| O=[N+]([O-])c1cccc(-c2csc(Nc3ccccc3)n2)c1 | inconclusive: 44.7 µM [inhibitor, partial curve] | – |
| CC1CCCN(CCCNC(=O)c2ccc3c(c2)N(Cc2cccc(Cl)c2)C(=O)c2ccccc2S3(=O)=O)C1 (stereo not drawn) | inconclusive: 79.4 µM [inhibitor, partial curve] | – |

| Compound | Potency | activity change, negative = inhibition |
| --- | --- | --- |
| CCOc1ccc(NC(=O)CN(c2cccc(C(F)(F)F)c2)S(C)(=O)=O)cc1 | – | inactive: -6.88% |
| Cc1cc(NC(=O)C(C)Sc2nc(-c3ccccc3)cc(=O)[nH]2)no1 (stereo not drawn) | inconclusive: 89.1 µM [inhibitor, single point] | – |
| Cc1ccc(N(C(=O)c2csnn2)C(C(=O)NC2CCCCC2)c2ccco2)cc1 (stereo not drawn) | inconclusive: 89.1 µM [inhibitor, single point] | – |
| Nc1ccc(Oc2ccc3nc(-c4ccccc4)c(-c4ccc([N+](=O)[O-])cc4)nc3c2)cc1 | inconclusive: 8.91 µM [inhibitor, full curve, poor fit] | – |
| COc1cccc(-n2sc3c(c2=S)-c2cc(OC)ccc2NC3(C)C)c1 | active: 10 µM | – |
| Cc1cc(C)cc(Oc2nc3ccccn3c(=O)c2/C=C(\C#N)C(=O)NC2CCS(=O)(=O)C2)c1 (stereo not drawn) | inconclusive: 79.4 µM [inhibitor, single point] | – |
| COc1ccc(N=C2SC(C(N)=O)CC(=O)N2CCc2ccc(OC)c(OC)c2)cc1 (stereo not drawn) | inconclusive: 79.4 µM [inhibitor, single point] | – |
| Cc1cc(C2(c3ccc(O)c(C)c3)C(=O)Nc3ccccc32)ccc1O | inconclusive: 89.1 µM [inhibitor, single point] | – |
| O=C1c2ccccc2NC(c2ccco2)N1O (stereo not drawn) | – | inactive: -7.13% |
| Cc1ccc(C(=O)NNC(=S)Nc2cccc3ccccc23)s1 | – | inactive: 2.81% |
| CCn1c(SC)nnc1-c1nn(-c2ccccc2)ccc1=O | inconclusive: 89.1 µM [inhibitor, single point] | – |
| CC1CN(c2ccc([N+](=O)[O-])cc2Cl)CCN1S(C)(=O)=O (stereo not drawn) | inconclusive: 79.4 µM [inhibitor, single point] | – |
| COc1ccc(N(CC(=O)NCc2ccc(F)cc2)C(=O)Cn2nnc(-c3ccc(C)o3)n2)cc1OC | – | inactive: 7.97% |
| CCCCC1(Br)C(=O)N(c2ccccc2)N(c2ccccc2)C1=O | inconclusive: 79.4 µM [inhibitor, partial curve] | – |
| O=C(Nc1nnc(C2CC2)s1)c1ccco1 | – | inactive: -5.29% |
| C/C(=N\Nc1nc2ccccc2[nH]1)c1ccccn1 | active: 20 µM | – |
| Cc1cc(-n2c(C)cc(C(=S)N3CCOCC3)c2C)ccc1Br | active: 44.7 µM | – |
| O=C(c1ccc(C(F)(F)F)cc1)C1CCCN(C(=O)CN2CCCC2=O)C1 (stereo not drawn) | inconclusive: 56.2 µM [inhibitor, partial curve] | – |
| CC(C)(/C=N/O)/[N+]([O-])=C/C=[N+](\[O-])C(C)(C)/C=N/O | inconclusive: 39.8 µM [inhibitor, single point] | – |
| CC(C)(C)c1cc(/C=N/NC(=O)C[n+]2ccccc2)cc(C(C)(C)C)c1O | active: 50.1 µM | – |
| O=C(Nc1ccc(-n2cccc2)cc1)C1CC1 | inconclusive: 56.2 µM [inhibitor, single point] | – |
| O=C(Nc1nc2ccccc2[nH]1)c1ccccc1F | inconclusive: 89.1 µM [inhibitor, single point] | – |
| CC1CN(C(=O)N2c3ccccc3Sc3ccccc32)CC(C)O1 (stereo not drawn) | active: 89.1 µM | – |
| CC1CCCN(C(=O)c2ccc(-c3ccccc3Cl)o2)C1 (stereo not drawn) | inconclusive: 79.4 µM [inhibitor, single point] | – |
| O=C(COc1cccc(NC(=O)c2cccc([N+](=O)[O-])c2)c1)c1ccc(Br)cc1 | inconclusive: 100 µM [inhibitor, single point] | – |

| Compound | Potency | activity change, negative = inhibition |
| --- | --- | --- |
| CCOCCc1nnc(NC(=O)CN2C(=O)c3ccccc3C2=O)s1 | – | inactive: 7.91% |
| COc1ccc(S(=O)(=O)NCC(c2ccco2)N2CCN(c3ccccc3F)CC2)cc1C (stereo not drawn) | – | inactive: 1.27% |
| O=C(O)c1c2c(nc3ccc(S(=O)(=O)N4CCC(C(=O)NCc5ccc(Cl)cc5)CC4)cc13)CCCC2 | inconclusive: 56.2 µM [inhibitor, partial curve] | – |
| O=C(CCN1C(=O)S/C(=C\C=C\c2ccccc2)C1=O)Nc1ccc(O)cc1 | – | inactive: -22.3% |
| CC(NC(=O)C1=CC=CN2CCS(=O)(=O)N=C12)c1ccc(Cl)cc1Cl (stereo not drawn) | – | inactive: 11.9% |
| CC(C)Oc1ccc(C(=O)NC2CCCCC2)cc1 | – | inactive: -6.28% |
| CCc1nc2ccccc2c(=O)n1NC(=O)c1c(O)c2ccccc2[nH]c1=O | inconclusive: 79.4 µM [inhibitor, single point] | – |
| COc1ccc(-n2c(SCC(=O)Nc3ccc(Cl)cc3)nc(O)c(Cc3ccccc3)c2=O)cc1 | inconclusive: 35.5 µM [inhibitor, partial curve] | – |
| O=C(O/N=C(\c1ccccc1)c1ccccn1)c1cccc2ccccc12 | inconclusive: 89.1 µM [inhibitor, single point] | – |
| COc1ccc(CCC(=O)NNC(=O)c2ccc(OC)cc2)cc1 | – | inactive: 6.74% |
| Cc1cccc(OCCSc2nc3ccccc3n2CC(=O)N2CCOCC2)c1C | inconclusive: 79.4 µM [inhibitor, single point] | – |
| COc1ccc2[nH]c(CN3CCN(CC=C(C)C)C(CCO)C3)c(C)c2c1 (stereo not drawn) | inconclusive: 89.1 µM [inhibitor, single point] | – |
| COc1ccc(N2C(=O)CC(N3CCN(C4CCc5ccccc5C4)CC3)C2=O)cc1 (stereo not drawn) | inconclusive: 79.4 µM [inhibitor, single point] | – |
| Cc1cc(C)c[n+](-c2[nH]c(=O)sc2/C=N/N=C(\N)[S-])c1 | inconclusive: 56.2 µM [inhibitor, partial curve] | – |
| CCN(CC)CCN(Cc1cc2cc3c(cc2[nH]c1=O)OCCO3)C(=S)NCC1CCCO1 (stereo not drawn) | – | inactive: -11.4% |
| CCCCC(CC)C(=O)Nc1ccc(Nc2ccccc2)cc1 (stereo not drawn) | inconclusive: 35.5 µM [inhibitor, partial curve] | – |
| CC(C)(C)NC(=O)CSc1nc(Cc2ccccc2)nc2ccccc12 | – | inactive: 7.14% |
| CCCCCC(=O)Nc1ccc(-c2csc(C)n2)cc1 | – | inactive: 26.8% |
| NCCCC[C@@H]1NC(=O)c2cc([N+](=O)[O-])cc(I)c2SC[C@@H](C(N)=O)NC(=O)[C@H](Cc2ccc(O)cc2)NC1=O | inconclusive: 70.8 µM [inhibitor, single point] | – |
| CC(NC(=O)CN1CCN(CC(=O)Nc2ccccc2Cl)CC1)c1ccc(Br)cc1 (stereo not drawn) | – | inactive: -0.364% |
| Cc1ccc(-c2nc3c(c(=O)[nH]c(=O)n3Cc3ccccc3)n2C)o1 | inconclusive: 50.1 µM [inhibitor, partial curve] | – |
| CN1C(=O)C(O)(CC(=O)c2ccccn2)c2cc(Br)ccc21 (stereo not drawn) | inconclusive: 89.1 µM [inhibitor, single point] | – |
| COc1ccc(OC)c(C2CC(=O)c3c([nH]c(C(=O)OCC4CCCO4)c3C)C2)c1 (stereo not drawn) | inconclusive: 89.1 µM [inhibitor, single point] | – |
